In the antibiotic and cytotoxicity screens of Wong et al. (2023) one finds cytotoxicity call data, which are given here for 31 molecules.

Some of the results follow.

The test system of the assay is HepG2. Description: cytotoxicity call (relative viability < 0.9). The following applies: 10 µM.
Consider `NC(=O)c1ccc([N+](=O)[O-])cc1Cl`, for which the cytotoxicity call was “inactive”.

In the case of `CC(C)CC#Cc1cnc2c(c1)C(=O)N([C@H](C)CO)C[C@H](C)[C@@H](CN(C)S(=O)(=O)c1cn(C)cn1)O2`, the cytotoxicity call is “inactive”.

On to `C[C@H](CO)N1C[C@H](C)[C@H](CN(C)S(=O)(=O)c2ccc(F)cc2)OCCCC[C@H](C)Oc2ccc(NC(=O)Nc3ccc4c(c3)OCO4)cc2C1=O`, for which the cytotoxicity call was “inactive”.

Turning to `C[C@@H]1CCCCO[C@H](CN(C)C(=O)c2ccccc2)[C@H](C)CN([C@@H](C)CO)C(=O)c2cc(NC(=O)C3CCCCC3)ccc2O1`, the cytotoxicity call is “inactive”.

Take `C=CC[C@@H](CC(=O)NCCO)C(=O)N[C@H](COC(=O)[C@H](CC=C)CC(=O)OC(C)(C)C)Cc1c[nH]c2ccccc12`: the cytotoxicity call is “inactive”.

On to `Cc1ccc(C)c(Cc2cc(Cl)ccc2Cl)c1`, for which the cytotoxicity call is “inactive”.

Consider `CN1CCc2nc(N)sc2C1`, for which the cytotoxicity call is “inactive”.

On to `O=C(O[C@@H]1O[C@H]2COC(=O)c3cc(O)c(O)c(O)c3-c3c(cc(O)c(O)c3O)C(=O)O[C@@H]([C@H]1O)[C@@H]2OC(=O)c1cc(O)c(O)c(O)c1-c1c(C(=O)O)cc(O)c(O)c1O)c1cc(O)c(O)c(O)c1`, for which the cytotoxicity call was “active”.

For `COc1ccc(S(=O)(=O)Nc2ccc3c(c2)OC[C@@H](C)N(C)C[C@@H](C)[C@H](OC)CN(C)C3=O)cc1`, the cytotoxicity call was “inactive”.

Consider `CN1C(=O)c2cc(NC(=O)c3ccc(C(F)(F)F)cc3)ccc2OC[C@H]2O[C@H](CC(=O)NC3Cc4ccccc4C3)CC[C@H]21`, for which the cytotoxicity call is “active”.

As for `COC(=O)c1c2oc(c1C(=O)OC)C(=O)N[C@H](Cc1ccccc1)Cn1cc(nn1)[C@@H](Cc1ccccc1)NC(=O)N[C@@H](COC(=O)NCCCCCC(=O)NO)CC2`, the cytotoxicity call was “inactive”.

Turning to `C[C@@H]1CN([C@@H](C)CO)C(=O)Cc2cc(NC(=O)Nc3ccc(C(F)(F)F)cc3)ccc2O[C@@H]1CN(C)CC1CCCCC1`, the cytotoxicity call is “active”.

Regarding `C[C@@H]1CN([C@H](C)CO)C(=O)c2cc(NC(=O)Nc3cccc4ccccc34)ccc2O[C@H]1CN(C)S(=O)(=O)c1ccccc1`, the cytotoxicity call is “inactive”.

In the case of `O=C(NCc1ccncc1)C(=O)NC[C@H]1OCCN1S(=O)(=O)c1ccc(F)cc1`, the cytotoxicity call is “inactive”.

With `CCOC(=O)N(C)C[C@@H]1OCc2cnnn2CCCC(=O)N([C@H](C)CO)C[C@H]1C`, the cytotoxicity call is “inactive”.

For `C[C@H]1CN([C@@H](C)CO)C(=O)CCCn2cc(nn2)CO[C@@H]1CN(C)C(=O)Nc1ccccc1C(F)(F)F`, the cytotoxicity call is “inactive”.

With `CC1CCC2(OC1)OC1CC3C4CCC5CC(O)CCC5(C)C4CCC3(C)C1C2C` (stereo unspecified), the cytotoxicity call was “inactive”.

Turning to `COc1ccc(CCN(C)CCCOc2ccc(S(=O)(=O)c3c(C(C)C)cn4ccccc34)cc2)cc1OC`, the cytotoxicity call is “active”.

With `C[C@H](CO)N1C[C@H](C)[C@H](CN(C)Cc2ccccc2)Oc2ccc(NC(=O)CCCN(C)C)cc2C1=O`, the cytotoxicity call was “inactive”.

Consider `Cc1nc2sccn2c(=O)c1CCN1CCC(=C(c2ccc(F)cc2)c2ccc(F)cc2)CC1`, for which the cytotoxicity call was “inactive”.

Take `S=C(c1cccs1)N1CCCC1`: the cytotoxicity call was “inactive”.

Turning to `C[C@H](CO)N1C[C@H](C)[C@H](CN(C)Cc2ccc(-c3ccccc3)cc2)Oc2c(NC(=O)Nc3ccc(F)cc3)cccc2C1=O`, the cytotoxicity call was “inactive”.

With `NC(=S)N[C@H]1CCS(=O)(=O)C1`, the cytotoxicity call is “inactive”.

`C=CCC[C@@H](Cc1ccc(F)cc1)C(=O)OC[C@@H](Cc1c[nH]c2ccccc12)NC(=O)[C@@H](CC=C)CC(=O)N(CCO)Cc1ccccc1`: the cytotoxicity call is “active”.

On to `C[C@H](O)C#Cc1ccc2c(c1)O[C@@H](CN(C)C(=O)c1ccccc1)[C@@H](C)CN([C@@H](C)CO)S2(=O)=O`, for which the cytotoxicity call was “inactive”.

Turning to `O=C(C[C@@H]1CC[C@@H]2[C@H](COC[C@@H](O)CN2C(=O)c2ccccc2F)O1)N1CCN(c2ccccc2)CC1`, the cytotoxicity call was “inactive”.

Turning to `C[C@H](CO)N1C[C@H](C)[C@H](CN(C)C(=O)Nc2ccc(C(F)(F)F)cc2)OCCCC[C@H](C)Oc2ccc(NC(=O)C3CCCCC3)cc2C1=O`, the cytotoxicity call was “inactive”.

As to `C[C@@H]1CN([C@@H](C)CO)C(=O)c2cc(C#CCN(C)C)cnc2O[C@H]1CN(C)C(=O)CN1CCOCC1`, the cytotoxicity call is “inactive”.

Turning to `CCS(=O)(=O)Nc1ccc2c(c1)C(=O)N(C)C[C@H](OC)[C@H](C)CN(Cc1ccccn1)[C@H](C)CO2`, the cytotoxicity call is “inactive”.

`C[C@@H](C(=O)N(C)C[C@@H]1OCc2ccccc2-c2c(n(C)c3ccccc23)C(=O)N([C@@H](C)CO)C[C@@H]1C)c1ccccc1`: the cytotoxicity call was “inactive”.

As for `C[C@H]1CCCCO[C@H](CN(C)Cc2ccc3c(c2)OCO3)[C@@H](C)CN([C@@H](C)CO)C(=O)c2cc(NC(=O)c3ccccc3)ccc2O1`, the cytotoxicity call was “inactive”.
